# Where a name gives a salt, the structure may show the parent alone. Over roughly 2,000 compounds, “fractional viability relative to vehicle” has its median near 0.91; the lowest 2% begin near 0.045. The list shows a part of the results.
# Test system: TYKNU
# Assay: fractional viability relative to vehicle; TYKNU is a high-grade serous ovarian cancer line; higher = less growth inhibition
# Details: 72 h
# In short: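 TYKNU control cells or lentiCRISPRv2 knockout derivatives were seeded at 500 cells per well into drug-stamped 384-well plates holding a ~2100-compound library at 2 or 10 μM, in duplicate. Cells were grown at 37 °C in 5% CO2 in RPMI 1640 with 10% FBS, and drug treatment lasted 72 h. Viability was read by Cell Titer Glo luminescence. Duplicate treatment wells were averaged and normalised to duplicate control wells from the same plate position.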
# [1] = 2uM, genotype: DNM1L knockout (sgDNM1L #1)
# [2] = 2uM, genotype: sgCTRLA1 (non-targeting control)
# [3] = 10uM, genotype: DNM1L knockout (sgDNM1L #1)
# [4] = 10uM, genotype: sgCTRLA1 (non-targeting control)
Compound,fractional viability [1],fractional viability [2],fractional viability [3],fractional viability [4]
CN(C)c1ccc(C(=C2C=CC(=[N+](C)C)C=C2)c2ccc(N(C)C)cc2)cc1 [Crystal Violet],0.133,0.121,0.0375,0.0133
COc1ccc(CC2c3cc(OC)c(OC)cc3CC[N+]2(C)CCC(=O)OCCCCCOC(=O)CC[N+]2(C)CCc3cc(OC)c(OC)cc3C2Cc2ccc(OC)c(OC)c2)cc1OC (stereo not drawn) [Atracurium Besylate],1.07,1.01,0.947,0.843
CC(=O)[C@H]1CC[C@H]2[C@@H]3CC=C4C[C@@H](O)CC[C@]4(C)[C@H]3CC[C@]12C [Pregnenolone],1.03,1.1,0.754,0.925
CCN1CCN(Cc2ccc(-c3cc4c(N[C@H](C)c5ccccc5)ncnc4[nH]3)cc2)CC1,0.943,0.995,0.305,0.202
CCOC(=O)c1c(CSc2ccccc2)n(C)c2cc(Br)c(O)c(CN(C)C)c12 [Arbidol HCl],0.913,1.07,0.611,0.645
Cc1nc(Nc2ncc(C(=O)Nc3c(C)cccc3Cl)s2)cc(N2CCN(CCO)CC2)n1 [Dasatinib],0.4,0.555,0.28,0.223
Cc1cc(Nc2nc(N[C@@H](C)c3ccc(F)cc3)c(C#N)cc2F)n[nH]1,0.489,0.626,0.508,0.533
CC(C)C[C@H](NP(=O)(O)O[C@@H]1O[C@@H](C)[C@H](O)[C@@H](O)[C@H]1O)C(=O)N[C@@H](Cc1c[nH]c2ccccc12)C(=O)O [Phosphoramidon Disodium Salt],0.791,0.943,0.793,0.773
COc1ccc(-c2ccc3c(N4CCOC[C@@H]4C)nc(N4CCOC[C@@H]4C)nc3n2)cc1CO,0.177,0.193,0.204,0.198
COc1ccc2c(c1)CCC1C2CCC2(C)C(NCCCCCCN3C(=O)C=CC3=O)CCC12 (stereo not drawn),0.849,0.972,0.942,0.781
COc1nccc(-c2c(-c3ccc(F)cc3)ncn2C2CCC(O)CC2)n1 (stereo not drawn),0.794,0.963,0.687,0.677
CN[C@@H](C)C(=O)N[C@H](C(=O)N1CCC[C@H]1c1nc(C(=O)c2ccc(F)cc2)cs1)C1CCCCC1,0.688,1.07,0.476,0.923
Cc1c(C(=O)Nc2ccc(Oc3ccnc4[nH]cc(-c5ccccc5)c34)c(F)c2)c(=O)n(-c2ccc(F)cc2)n1C,0.717,0.956,0.488,0.619
COc1c(C)c(C(=O)c2ccc(N)c(C(=O)O)c2)n2ccccc12,0.816,1.14,0.752,1.08
CC(=O)Oc1ccccc1C(=O)Nc1ncc([N+](=O)[O-])s1 [Nitazoxanide],1.25,1.17,1.05,0.91
NC(=O)c1ccc(N(C(N)=O)c2c(F)cccc2F)nc1-c1ccc(F)cc1F,0.752,1.04,0.828,0.984
CCCc1cc(C)[nH]c(=O)c1CNC(=O)c1cc(-c2ccc(N3CCN(C(C)C)CC3)nc2)cc2c1cnn2C(C)C,0.75,1.03,0.122,0.113
COc1ccc([C@@H]2CC(=O)c3c(O)cc(O)cc3O2)cc1O [Hesperetin],1.03,1.02,1.02,1.13
Nc1c(CC(=O)O)cccc1C(=O)c1ccccc1 [Amfenac Sodium Monohydrate],0.897,1.03,0.931,1.03

Compound,fractional viability [1],fractional viability [2],fractional viability [3],fractional viability [4]
CC(C)(C)C(=O)Nc1ccc2c(c1)C(=O)C(=O)c1ccccc1-2,0.175,0.0968,0.0236,0.0127
O=C(Nc1cccc(Cl)c1)c1ccccn1,1.06,1.05,0.971,1.12
N#Cc1ccc(C(c2ccc(C#N)cc2)n2cncn2)cc1 [Letrozole],0.954,1,0.827,0.857
C[C@@]1(C(=O)Nc2ccc(F)nc2)CCCN1c1nc(Nc2cc(C3CC3)n[nH]2)c2cccn2n1,0.561,0.689,0.282,0.252
Clc1ccc(CCC(Cn2ccnc2)Sc2c(Cl)cccc2Cl)cc1 (stereo not drawn) [Butoconazole nitrate],1.01,0.973,0.723,0.846
CN(C)C(=O)Nc1cccc(-c2ccc(N(C)C)cc2)c1 [Atglistatin],0.804,0.95,0.875,0.769
CN1CCN(C2=Nc3ccccc3Oc3ccc(Cl)cc32)CC1 [Loxapine Succinate],1,1.05,0.619,1.02
CC(C)CC(N)=O [Isovaleramide],1.06,1.19,1.05,1.15
COc1c2occc2cc2ccc(=O)oc12 [Methoxsalen],0.944,1.16,0.944,1.22
N=C(NCCCCCCNC(=N)NC(=N)Nc1ccc(Cl)cc1)NC(=N)Nc1ccc(Cl)cc1 [Chlorhexidine HCl],1.16,0.839,0.0803,0.102
CCOC(=O)[C@@H](N)Cc1ccc(-c2cc(O[C@H](c3ccc(Cl)cc3-n3ccc(C)n3)C(F)(F)F)nc(N)n2)cc1 [Telotristat Etiprate (LX 1606 Hippurate)],0.777,1.1,0.0468,0.12
c1ccc(NCc2ccc(CNc3ccccn3)cc2)nc1,1.2,1.19,1.02,1.03
CN1CCN(Cc2ccc(Nc3ncc(Cl)c(Nc4ccccc4S(=O)(=O)N(C)C)n3)cc2)CC1,0.22,0.229,0.234,0.18
COC(=O)c1ccc2c(c1)nc(NC(=O)c1ccccc1)n2CCCc1ccccc1,0.818,1.05,0.384,0.417
Cc1nnc(C(=O)NC(C)(C)c2nc(C(=O)NCc3ccc(F)cc3)c(O)c(=O)n2C)o1 [Raltegravir (MK-0518)],0.979,1.07,0.879,1.06
C[C@@H]1C[C@H]2[C@@H]3C[C@H](F)C4=CC(=O)C=C[C@]4(C)[C@@]3(F)[C@@H](O)C[C@]2(C)[C@@]1(O)C(=O)CO [Flumethasone],1.3,1.08,0.819,1.02
O=C(NC[C@H]1CN(c2ccc(N3CCOCC3=O)cc2)C(=O)O1)c1ccc(Cl)s1 [Rivaroxaban],1.11,1.14,0.885,1.01
C[C@@H](Oc1ccc2[nH]nc(/C=C/c3cnn(CCO)c3)c2c1)c1c(Cl)cncc1Cl,0.356,0.412,0.149,0.157

# From the supplement of paper PMC5919970
